Results on 306 variants are retold here after a collection of fitness landscapes (doi:10.1126/science.1257360).

The list shows a part of the results. Where only a bound is given, the exact number is not on record here.

The chains are these.
B1: PhoQ; a variant is named by its letters at X, in order, P23837 (parent)
chain: MKKLLRLFFPLSLRVRFLLATAAVVLVLSLAYGMVALIGYSVSFDKTTFRLLRGESNLFYTLAKWENNKLHVELPENIDKQSPTMTLIYDENGQLLWAQRDVPWLMKMIQPDWLKSNGFHEIEADVNDTSLLLSGDHSIQQQLQEVREDDDDAEMTHSVAVNVYPATSRMPKLTIVVVDTIPVELKSSYMVWSWFIYVLSANLLLVIPLLWVAAWWSLRPIEALAKEVRELEEHNRELLNPATTRELTSLVRNLNRLLKSERERYDKYRTTLTDLTHSLKTPLXXLQXXLRSLRSEKMSVSDAEPVMLEQISRISQQIGYYLHRASMRGGTLLSRELHPVAPLLDNLTSALNKVYQRKGVNISLDISPEISFVGEQNDFVEVMGNVLDNACKYCLEFVEISARQTDEHLYIVVEDDGPGIPLSKREVIFDRGQRVDTLRPGQGVGLAVAREITEQYEGKIVAGESMLGGARMEVIFGRQHSAPKDE

The variants in the assay derive from B1. Description: enrichment ratio after two sorts for PhoP signalling (ratio (wild type AVST 3.29)); higher = more functional. Conditions: with PhoP (E. coli).
With VFLS, the enrichment ratio was not above 0.25.
Take MIFP: the enrichment ratio was not above 0.25.
For the variant HMDK, the enrichment ratio was not above 0.25.
Take LIVF: the enrichment ratio was not above 0.25.
KHKI: the enrichment ratio was not above 0.25.
For IDID, the enrichment ratio is not above 0.25.
VQQW: the enrichment ratio was not above 0.25.
YPVV: the enrichment ratio was not above 0.25.
QGNF: the enrichment ratio is not above 0.25.
Next, NMYQ: not above 0.25.
Next, FYAG: not above 0.25.
Next, LQGN: not above 0.25; EHMP: not above 0.25.
Regarding FTTE, the enrichment ratio is not above 0.25.
Next, MMST: 0.699.
With RDGF, the enrichment ratio is not above 0.25.
For the variant ETML, the enrichment ratio was not above 0.25.
Next, DEEV: not above 0.25.
For ARNR, the enrichment ratio was not above 0.25.
The same measure for KPGM: not above 0.25; for DDGG: not above 0.25; for KLLG: not above 0.25.
For KLCS, the enrichment ratio was not above 0.25.
Next, AVMS: 7.88; FRHI: not above 0.25.
In the case of EDWL, the enrichment ratio was not above 0.25.
For the variant WCKN, the enrichment ratio is not above 0.25.
Regarding TWPA, the enrichment ratio is not above 0.25.
The same measure for LYQE: not above 0.25; for GMIL: not above 0.25.
The same measure for YMNC: not above 0.25; for FEWH: not above 0.25; for AECH: 16.5.
With NEML, the enrichment ratio stood at 0.665.
Next, MIWL: 3.25; WYYQ: not above 0.25.
For the variant GTYM, the enrichment ratio is 0.291.
Next, VEIN: not above 0.25; DEIY: not above 0.25.
Next, ECMM: not above 0.25; YYQQ: not above 0.25; GNDK: not above 0.25.
Consider NYDE, for which the enrichment ratio was not above 0.25.
With HIVY, the enrichment ratio was not above 0.25.
For PFSR, the enrichment ratio is not above 0.25.
Next, NRPV: not above 0.25; DWYI: not above 0.25.
As to QANA, the enrichment ratio is not above 0.25.
For RMVR, the enrichment ratio was not above 0.25.
Take YSCQ: the enrichment ratio worked out at 8.57.
Next, DCVH: not above 0.25; TRDI: not above 0.25; AYVL: not above 0.25.
Next, FFGN: not above 0.25; RWCG: not above 0.25.
As for ETQN, the enrichment ratio was not above 0.25.
For the variant PEIF, the enrichment ratio is not above 0.25.
As to RSIH, the enrichment ratio was not above 0.25.
The same measure for RKYS: not above 0.25; for DGFG: not above 0.25; for RVWM: not above 0.25.
With FRLE, the enrichment ratio was not above 0.25.
For KLIW, the enrichment ratio was not above 0.25.
On to FFAC, for which the enrichment ratio is not above 0.25.
Next, FKCK: not above 0.25.
LKGD: the enrichment ratio was not above 0.25.
For WCAY, the enrichment ratio is not above 0.25.
The same measure for QMPA: not above 0.25; for SAYM: 0.972; for KQTL: not above 0.25.
In the case of TGIN, the enrichment ratio was not above 0.25.
For the variant AGMY, the enrichment ratio came out at 20.
For the variant LKSL, the enrichment ratio was not above 0.25.
For the variant FTTK, the enrichment ratio is not above 0.25.
On to NKFE, for which the enrichment ratio was not above 0.25.
Consider WHNM, for which the enrichment ratio was not above 0.25.
The same measure for QTHC: not above 0.25.
The same measure for GTIA: not above 0.25; for QTVT: not above 0.25; for PEEF: not above 0.25.
The same measure for AILF: 2.9.
In the case of SHAF, the enrichment ratio was not above 0.25.
For the variant HHKK, the enrichment ratio is not above 0.25.
The same measure for GKVR: not above 0.25; for WARS: not above 0.25.
With WPNS, the enrichment ratio is not above 0.25.
In the case of VLHP, the enrichment ratio is not above 0.25.
For KAHA, the enrichment ratio was not above 0.25.
Regarding WIAR, the enrichment ratio was not above 0.25.
The same measure for SVAD: not above 0.25; for AWYS: not above 0.25.
Consider NKNV, for which the enrichment ratio is not above 0.25.
With QDQN, the enrichment ratio is not above 0.25.
The same measure for WMQS: not above 0.25.
The same measure for QTNT: not above 0.25.
Next, NCTL: not above 0.25; AGVF: 8.28; PMEQ: not above 0.25.
In the case of LSDV, the enrichment ratio was not above 0.25.
Next, APCH: not above 0.25; YTSF: not above 0.25.
Regarding NHDA, the enrichment ratio is not above 0.25.
The same measure for YNKK: not above 0.25; for DFCP: not above 0.25; for ISEF: 0.563.
In the case of GMMT, the enrichment ratio is not above 0.25.
For the variant HPYE, the enrichment ratio is not above 0.25.
Next, NICQ: not above 0.25.
For the variant KNKC, the enrichment ratio was not above 0.25.
Take RSAM: the enrichment ratio is not above 0.25.
Next, FGPC: not above 0.25; IERN: not above 0.25.
Next, AHDE: not above 0.25; GPKP: not above 0.25.
The same measure for YFLR: not above 0.25; for QNGK: not above 0.25.
With ETPD, the enrichment ratio is not above 0.25.
With RMAC, the enrichment ratio is not above 0.25.
Next, INEK: not above 0.25; IPWE: not above 0.25.
For the variant DFTF, the enrichment ratio was not above 0.25.
Next, IQTH: not above 0.25; GRPM: not above 0.25; EYDV: not above 0.25.
For the variant YKES, the enrichment ratio was not above 0.25.
Take GICI: the enrichment ratio came out at 7.05.
Next, YTAK: not above 0.25.
The same measure for NTLL: 1.47.
In the case of MKNS, the enrichment ratio is not above 0.25.
The same measure for RPYY: not above 0.25; for GCHF: not above 0.25.
On to LFWQ, for which the enrichment ratio was not above 0.25.
Next, RIAS: not above 0.25; VWDW: not above 0.25.
The same measure for SGYR: not above 0.25.
The same measure for GINC: not above 0.25; for MMRF: not above 0.25.
For SMPD, the enrichment ratio was not above 0.25.
The same measure for FRTP: not above 0.25; for MNFT: not above 0.25; for QAFL: not above 0.25.
In the case of EFNG, the enrichment ratio was not above 0.25.
Next, SYMQ: not above 0.25.
The same measure for DHCR: not above 0.25; for FSYM: not above 0.25; for ALDW: not above 0.25.
With IRHK, the enrichment ratio was not above 0.25.
The same measure for SCEL: not above 0.25.
Turning to FQIL, the enrichment ratio is not above 0.25.
Next, MIGF: 11.9; YHPL: not above 0.25.
The same measure for DMHK: not above 0.25; for RTRW: not above 0.25.
Next, NQRP: not above 0.25; RPSQ: not above 0.25; HSYW: not above 0.25.
In the case of PRIG, the enrichment ratio was not above 0.25.
Turning to SHAA, the enrichment ratio is not above 0.25.
The same measure for LIDF: not above 0.25.
Take SLSK: the enrichment ratio worked out at 1.32.
The same measure for LTSM: not above 0.25; for YEFT: not above 0.25.
Next, EQMA: not above 0.25; YWDV: not above 0.25.
As for FSKY, the enrichment ratio is not above 0.25.
RFDA: the enrichment ratio is not above 0.25.
YYPS: the enrichment ratio was not above 0.25.
With RQEW, the enrichment ratio was not above 0.25.
As to NGHE, the enrichment ratio was not above 0.25.
For the variant AKDR, the enrichment ratio was not above 0.25.
Next, DPKR: not above 0.25; LEAE: not above 0.25; QGHF: not above 0.25.
As for WEAL, the enrichment ratio was not above 0.25.
For YIDC, the enrichment ratio is not above 0.25.
The same measure for LNRT: not above 0.25; for ECQQ: not above 0.25; for SPKG: not above 0.25.
Next, HQNK: not above 0.25; HRLA: 0.286.
Take TLHI: the enrichment ratio was not above 0.25.
Next, TVDH: 4.63; QCNT: not above 0.25.
The same measure for WCCH: not above 0.25.
Consider ERWC, for which the enrichment ratio is not above 0.25.
Turning to FPHD, the enrichment ratio was not above 0.25.
As to FVWP, the enrichment ratio is not above 0.25.
The same measure for WSHF: not above 0.25.
Next, DQGI: not above 0.25; ACAF: 3.99; RNWW: not above 0.25.
The same measure for VEDY: not above 0.25.
With LCMT, the enrichment ratio was not above 0.25.
For SSVW, the enrichment ratio is not above 0.25.
The same measure for AVML: 4.05; for TNNP: not above 0.25; for KAEE: not above 0.25.
The same measure for QMPT: not above 0.25.
As to DLDQ, the enrichment ratio was not above 0.25.
On to YQMT, for which the enrichment ratio was 0.333.
Regarding AWNT, the enrichment ratio was not above 0.25.
Consider TPQE, for which the enrichment ratio was not above 0.25.
Next, GQHL: not above 0.25.
The same measure for NRMV: not above 0.25; for GQVC: 0.594.
Next, VCER: not above 0.25; TILQ: 1.33; YVEW: not above 0.25.
Take TTIP: the enrichment ratio is not above 0.25.
The same measure for QCYH: not above 0.25; for RFMG: not above 0.25.
Next, QGQI: not above 0.25; IFIV: not above 0.25; TIVW: not above 0.25.
Next, IDAF: not above 0.25.
With DYNF, the enrichment ratio was not above 0.25.
Take HNHW: the enrichment ratio is not above 0.25.
On to SIDM, for which the enrichment ratio is not above 0.25.
Regarding DMSK, the enrichment ratio is not above 0.25.
Next, SFKC: not above 0.25; INQG: not above 0.25.
The same measure for ERQY: not above 0.25.
Turning to SYWL, the enrichment ratio is not above 0.25.
The same measure for RMQT: not above 0.25; for EFDE: not above 0.25.
Next, NYSQ: not above 0.25; DITV: not above 0.25.
Next, SCCH: 2.93.
Consider IICT, for which the enrichment ratio was not above 0.25.
Turning to HQTY, the enrichment ratio is not above 0.25.
Next, NDEV: not above 0.25; HTGA: not above 0.25; MACK: not above 0.25.
The same measure for TLEH: not above 0.25; for TVTT: 6.02.
Next, IQMM: not above 0.25; DGQR: not above 0.25.
For WKCF, the enrichment ratio was not above 0.25.
Next, ENIC: not above 0.25; PTNL: not above 0.25; QAFN: 8.51.
Next, YAQR: not above 0.25; SAKE: not above 0.25.
Next, KVCN: not above 0.25; RRIH: not above 0.25.
Turning to IVNT, the enrichment ratio is not above 0.25.
The same measure for MGNC: not above 0.25; for AKGL: 5.13; for KEYL: not above 0.25.
Next, QVCV: not above 0.25.
Turning to IPEQ, the enrichment ratio is not above 0.25.
The same measure for KAGL: not above 0.25; for VSVG: not above 0.25.
Next, HNPS: not above 0.25; TMEA: not above 0.25; QMQV: not above 0.25.
On to QYTV, for which the enrichment ratio is not above 0.25.
For the variant PNQK, the enrichment ratio is not above 0.25.
The same measure for WSPP: not above 0.25.
As for EACP, the enrichment ratio is not above 0.25.
The same measure for QQHA: not above 0.25; for TYHN: not above 0.25; for HIMF: not above 0.25.
Next, IWSI: not above 0.25; YCMM: not above 0.25; QEQN: not above 0.25.
The same measure for YLDP: not above 0.25.
On to IMLN, for which the enrichment ratio is not above 0.25.
Next, QHEI: not above 0.25; NQKI: not above 0.25; FCRH: not above 0.25.
Regarding HIIW, the enrichment ratio is not above 0.25.
Next, LHES: not above 0.25; DGVY: not above 0.25; WKHD: not above 0.25.
Next, LWPI: not above 0.25.
GWWL: the enrichment ratio was not above 0.25.
For LWQE, the enrichment ratio was not above 0.25.
Next, LDFT: not above 0.25; DCDT: not above 0.25.
For the variant SVHI, the enrichment ratio was not above 0.25.
Next, QQHV: not above 0.25; QNKT: not above 0.25; PDVV: not above 0.25.
The same measure for EVAI: not above 0.25; for AVWL: not above 0.25.
For the variant TPMT, the enrichment ratio is not above 0.25.
Regarding YLWE, the enrichment ratio is not above 0.25.
The same measure for EVWY: not above 0.25; for AWYM: not above 0.25; for RCIL: not above 0.25.
Take WWMK: the enrichment ratio is not above 0.25.
Next, EYKG: not above 0.25.
The same measure for IHHR: not above 0.25.
For the variant PYME, the enrichment ratio was not above 0.25.
The same measure for LGTL: not above 0.25.
The same measure for ALQI: not above 0.25; for NSMQ: not above 0.25; for HDCV: not above 0.25.
Next, WWPQ: not above 0.25; NPLW: not above 0.25; VRCT: not above 0.25.
For IISR, the enrichment ratio was not above 0.25.
For TYSF, the enrichment ratio is not above 0.25.
Next, WMPW: not above 0.25.
Next, FKTS: not above 0.25.
